This is one part of the list.

The assay concerns PfSIP2 AP2 domain 1 (GST-tagged). In words: gcPBM binding intensity (ln(normalized median fluorescence intensity)); higher = stronger DNA binding. The method, boiled down: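 Each value is the highest Masliner-normalised natural-log median intensity across replicate spots of either orientation of a probe. The probes were primer-extended double-stranded 36-bp intergenic genomic sequences on an Agilent 4 × 180k array, alongside negative controls, exposed for 1 h to GST-tagged P. falciparum DNA-binding domains expressed in E. coli. Bound protein was picked up with Alexa488 anti-GST antibody and scanned at 488 nm.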
Consider “AATTTCAATTTCTGTTGTACACTTTTTAATAGTAAA [XGTACX_site4085]”, for which the “gcPBM binding intensity (ln)” value was 7.08. For “AAATTTAAAAATAAAGAACACACATATGTAAAATAT [CACACA_site9252]”, the “gcPBM binding intensity (ln)” value worked out at 7.13. Consider “AAGTGTTCTTGTTATACACACACATATATATATATA [CACACA_site8251]”, for which the “gcPBM binding intensity (ln)” value turned out to be 9.61. Turning to “TAGCATGATTTGCCTTGTACACAACCGTTTTAATAA [XGTACX_site7911]”, the “gcPBM binding intensity (ln)” value amounted to 6.76. In the case of “TATGATAAATATGGAGCACACACACCGAAACATACA [CACACA_site8031]”, the “gcPBM binding intensity (ln)” value stood at 7.32. Consider “TATTTATAAATATACGCACACATTAATATATATATA [CACACA_site3969]”, for which the “gcPBM binding intensity (ln)” value is 8.6. Regarding “AGTATGTAAATGTGCCATATATATATTAAATACATA [CACACA_negctrl_site14]”, the “gcPBM binding intensity (ln)” value worked out at 6.93.

Regarding “GTTGGTAGGCGGTACGGTACACGTAGTATTTTTCTT [XGTACX_site4213]”, the “gcPBM binding intensity (ln)” value was 6.66. For “ATATTATTTATTTTTAAATTATATTGATTATTTTTT [CACACA_negctrl_site451]”, the “gcPBM binding intensity (ln)” value worked out at 6.65. Consider “TTGAAGTGTACTATTTTATATATATATATACATTTT [CACACA_negctrl_site224]”, for which the “gcPBM binding intensity (ln)” value is 7.25. The result for “TAGAAATATATTTATTGTACATTGTATATATTATAT [XGTACX_site7584]” reads 7.04. As to “TTTTAATTTTTAAGACGTACTATCATTTGATAATAA [XGTACX_site3942]”, the “gcPBM binding intensity (ln)” value amounted to 6.86. For “TACGATGTTTTAAAATGTACATAAAAGTCACATAAG [XGTACX_site3297]”, the “gcPBM binding intensity (ln)” value was found to be 7.01.

With TAATGTTCCTATATAGTGCAATTATGTTTTATTTCT, the “gcPBM binding intensity (ln)” value came out at 8.06.

On to “TCTTTTTTTTTTACTAGTACTTAAAAAAAAAATATG [XGTACX_site4395]”, for which the “gcPBM binding intensity (ln)” value came out at 7.07. Turning to “ATTATGTGCCAATACACACACACATCTATATTTATA [CACACA_site6359]”, the “gcPBM binding intensity (ln)” value is 7.15.

Regarding “TTATTATATAAATAAAAAAAAAAAAAAAAAAAAAAA [CACACA_negctrl_site1455]”, the “gcPBM binding intensity (ln)” value turned out to be 7. In the case of “TATATACGCATGCGCACACACAAGTGGGAAATTTGG [CACACA_site1785]”, the “gcPBM binding intensity (ln)” value is 7.17. In the case of “ACTGTGGGAATAACCACACACACACCCACATATATA [CACACA_site3542]”, the “gcPBM binding intensity (ln)” value was found to be 6.9.

As for “ATATTTATATGAATCACACACAAAAAATATAGAGAT [CACACA_site7775]”, the “gcPBM binding intensity (ln)” value worked out at 7.02. The result for “AAATCACAAAAAAAAAAAAAAATATATATATATATA [CACACA_negctrl_site10]” reads 9.28; that for “CATAAATACAAATATACACACATATATATATATATA [CACACA_site2633]”, 9.66.

Regarding “AATATGTTTTTTAGATGTACAGATTAAATATTAAAA [XGTACX_site7308]”, the “gcPBM binding intensity (ln)” value was 7.17.

“TTTTTTTCATATATATGTACATAATTATATATGCAT [XGTACX_site3257]”: the “gcPBM binding intensity (ln)” value stood at 7.12. As for “TTTAAAAATATTTCACGTACGCATTTTAAAAAGTAT [XGTACX_site8026]”, the “gcPBM binding intensity (ln)” value amounted to 6.92. Consider “TTAATTATATGGTAAACAAATAAATGTGAAAGGAAA [XGTACX_negctrl_site389]”, for which the “gcPBM binding intensity (ln)” value worked out at 6.99. “CGTGGGAGCAGACACACACACACACCCATATATATA [CACACA_site334]”: the “gcPBM binding intensity (ln)” value was found to be 7.34.

As to AATATGGGCATACATGTGCACTTTTTCCCGTGGTTT, the “gcPBM binding intensity (ln)” value came out at 9.88. On to “TTAATTAAATATAGGGGTACATATTATATATGTTTT [XGTACX_site3677]”, for which the “gcPBM binding intensity (ln)” value stood at 7.09. Regarding “ACGAAAAGATATATATGTACATATATTAAAAAAAAA [XGTACX_site1517]”, the “gcPBM binding intensity (ln)” value worked out at 7.01.

For “TTATATGCATATTTTTGTACACAACATTGTTGTATA [XGTACX_site8707]”, the “gcPBM binding intensity (ln)” value worked out at 7.06. For the sequence “AAGAAATTTATTTATTGTACAATATATAATTTGTTT [XGTACX_site2478]”, the “gcPBM binding intensity (ln)” value worked out at 6.79.

As to “ATGTATATTTTTATGTGTACGTAATAAAACATAATA [XGTACX_site7777]”, the “gcPBM binding intensity (ln)” value is 7.68. Take “TTATTTTTTTTTAGAGCACACATTTTTAATAAGGTA [CACACA_site2133]”: the “gcPBM binding intensity (ln)” value was found to be 7.15. For “TATAAATTTGTTCAATGTACATGTAAAGATATAATC [XGTACX_site371]” the value was 7.11; for “TGAAGCAAAAACAAAACACACATATAAATAAATAAA [CACACA_site3925]”, 6.88. The result for “TTATTTTTTATAAAATGTACATATATTTTAAATATA [XGTACX_site4026]” reads 7.05; that for “ACCAATCCAAAAGAATGTACCCATGTTTTAAAATAT [XGTACX_site2907]”, 7.1; that for “TTCGTATGCATGAAATGTACATGATATTATTATAAA [XGTACX_site4542]”, 7.16. For “TTTTGTTAACATATAGAAAAGAACAAAGTTAAAAAG [XGTACX_negctrl_site462]” the value was 7.51; for “GAAAAAAAAATACATACACACAATATATTTATTTAT [CACACA_site3124]”, 6.87. For the sequence “TATTATATATAATATTGTACATTAAAATATTAAAGA [XGTACX_site3698]”, the “gcPBM binding intensity (ln)” value amounted to 7.04.

On to “TTTATTTTAAAATATAGTACGCAAATAAAAATAAAT [XGTACX_site7783]”, for which the “gcPBM binding intensity (ln)” value was 7.33. As to “GGAACGTTCATATTTCCACACACAAAAAATAAATAT [CACACA_site9101]”, the “gcPBM binding intensity (ln)” value came to 7.08.

Source of the values: the supplement of paper PMC11417369.
